Results as given in article PMC4336329 (PLoS ONE, 2015).
About 2,200 (0.71%) of roughly 310,000 compounds showed an effect of 50% or more. Effects have a minus sign here. The list shows a part of the results.

Molecular target: human ether-à-go-go-related gene (hERG) potassium channel (human, UniProt Q12809)
Assay: primary screen, population patch clamp on CHO cells stably expressing hERG

human ether-à-go-go-related gene (hERG) potassium channel, sequence (Q12809 whole entry, looked up): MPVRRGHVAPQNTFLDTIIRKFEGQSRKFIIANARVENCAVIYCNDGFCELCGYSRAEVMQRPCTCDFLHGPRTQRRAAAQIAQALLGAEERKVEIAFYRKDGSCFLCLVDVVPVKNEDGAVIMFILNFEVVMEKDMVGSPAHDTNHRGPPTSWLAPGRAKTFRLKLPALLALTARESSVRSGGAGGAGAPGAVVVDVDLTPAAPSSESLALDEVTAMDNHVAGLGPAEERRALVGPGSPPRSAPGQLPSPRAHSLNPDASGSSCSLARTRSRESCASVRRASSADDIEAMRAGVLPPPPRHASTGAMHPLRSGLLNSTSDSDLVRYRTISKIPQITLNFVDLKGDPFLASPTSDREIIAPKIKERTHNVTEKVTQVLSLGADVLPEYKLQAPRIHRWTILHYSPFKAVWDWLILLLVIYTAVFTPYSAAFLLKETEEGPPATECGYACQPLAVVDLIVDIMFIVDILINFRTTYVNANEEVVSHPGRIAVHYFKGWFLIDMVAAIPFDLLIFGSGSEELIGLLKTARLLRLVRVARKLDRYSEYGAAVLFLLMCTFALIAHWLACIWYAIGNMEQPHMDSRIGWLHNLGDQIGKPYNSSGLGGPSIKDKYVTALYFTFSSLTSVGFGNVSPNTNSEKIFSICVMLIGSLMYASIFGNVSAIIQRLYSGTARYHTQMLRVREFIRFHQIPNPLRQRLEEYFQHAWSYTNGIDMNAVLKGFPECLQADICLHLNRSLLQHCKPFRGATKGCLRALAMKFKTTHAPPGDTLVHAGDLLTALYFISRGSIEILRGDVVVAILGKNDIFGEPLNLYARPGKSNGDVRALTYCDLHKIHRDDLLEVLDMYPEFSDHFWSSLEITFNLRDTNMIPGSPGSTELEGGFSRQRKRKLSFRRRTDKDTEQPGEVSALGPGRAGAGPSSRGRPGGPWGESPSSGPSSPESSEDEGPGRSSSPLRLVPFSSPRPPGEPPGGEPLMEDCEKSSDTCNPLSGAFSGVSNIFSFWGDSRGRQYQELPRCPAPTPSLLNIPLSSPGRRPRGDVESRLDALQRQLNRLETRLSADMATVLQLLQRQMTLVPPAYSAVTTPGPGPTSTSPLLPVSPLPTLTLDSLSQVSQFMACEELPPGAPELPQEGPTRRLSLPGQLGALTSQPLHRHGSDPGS

SMILES | hERG current change (%, negative = inhibition) at 1uM [%]
COC(=O)c1cc(COC(=O)COc2ccc(C)c(C)c2)oc1C | 16.9
CC(C)C(C)N(Cc1cccc(C(=O)O)c1)C(=O)c1ccc2ccccc2n1 (stereo not shown) | 15.5
CCOc1ccccc1N1CCN(C(=O)c2ccccc2SCC(=O)N2CCCC2)CC1 | 5.55
O=C(O)CCC(=O)Nc1nnc(C(F)(F)F)s1 | -2.48
C[C@H](NC(=O)c1nc[nH]c1C(=O)NCCCCCNC(=O)OC(C)(C)C)C(=O)OCc1ccccc1 | 19.3
CCOc1ccc(N2CC(C(=O)NCC(=O)Nc3ccc(F)c(F)c3F)CC2=O)cc1 (stereo not shown) | -3.93
CCCCC(=O)N/N=C/c1c(O)n(CCc2ccccc2)c(=O)[nH]c1=O | 18
CC(=O)CSc1cc(C)nc2c(-c3ccccc3)c(C)nn12 | 9.8
COc1ccc(C(=O)N2CCN(CC(=O)N3CCOCC3)CC2)cc1 | 6.9
COc1ccc(NS(=O)(=O)c2cc(C(=O)N3CCC3)ccc2C)cc1 | 5.16
C/C(=N\N1CCN(C2c3ccccc3-c3ccccc32)CC1)c1ccco1 | 4.34
CCOC(=O)N1CCN(CC(O)COC2CC(C)CC(C)(C)C2)CC1.Cl (stereo not shown) | 8.44
CC1(C)Cc2ccccc2-c2nnc(SCC(=O)Nc3ccc4c(c3)OCO4)n21 | -41.6
COc1ccc2cc(CN(CC3CCCO3)C(=S)NCc3ccco3)c(=O)[nH]c2c1 (stereo not shown) | 5.62
O=C(NCc1ccccc1)c1ccc2c(=O)n3c(nc2c1)CCCCC3 | -5.17
CCn1c(=O)c([N+](=O)[O-])c(NCC2CCCO2)c2ccccc21 (stereo not shown) | 6.48
CCn1cc(C(=O)N[C@H](C)c2ccccc2)c(=O)c2cc(F)c(N3CCN(C)CC3)cc21 | 8.37
Fc1cccc(CN2CCN(Cc3nc(-c4cnccn4)no3)CC2)c1 | 9.94
CCOc1ccc(N/C(N)=N/c2nc(CSc3nnc(C)s3)cc(=O)[nH]2)cc1 | 9.23
COc1ccc(C2(C)NC(=O)N(CC(=O)NCCC3=CCCCC3)C2=O)cc1OC (stereo not shown) | 11.2
CCOC(=O)N1CCC(N2CC34C=CC(O3)C(C(=O)O)C4C2=O)CC1 (stereo not shown) | 6.51
Nc1nnc(SCC(=O)Nc2ccccc2)s1 | 5.83

SMILES | hERG current change (%, negative = inhibition) at 1uM [%]
O=C(C1CC1)N1CCC(c2nc(-c3ccc(S(=O)(=O)NCC4CCCO4)cc3)no2)CC1 (stereo not shown) | 5.99
CCOC(=O)C1CCN(CCC(=O)Nc2cccc(Cl)c2)CC1 | -15.2
C=CCOC(=O)C1=C[C@@H](c2coc3ccccc3c2=O)C[C@@H](OCCCCO)O1 | 0.501
CCCC(=O)NC(Nc1ccc(S(=O)(=O)Nc2ncccn2)cc1)(C(=O)OCC)C(F)(F)F (stereo not shown) | 20.3
CCN(CC)CCCNC(=O)c1sc2nc(-c3ccc(F)cc3)cn2c1C | -55.5
N#CCCN(Cc1cccnc1)C(=O)c1ccc(S(=O)(=O)N2CCOCC2)cc1 | -3.28
Cc1ccc(CNC(=O)Cn2cccc2C(=O)c2ccccc2C)cc1 | -0.152
O=C(CSc1ccccn1)Nc1ccc2c(c1)OCCO2 | 7.38
O=c1c2ccccc2ncn1-c1cccc([N+](=O)[O-])c1 | 10.8
O=C(CCN1C(=O)C2CC=CCC2C1=O)Nc1cc(C(F)(F)F)ccc1N1CCCC1 (stereo not shown) | 14.4
Cc1nc(SCC(=O)N2CC(=O)Nc3ccccc32)c2c(C)c(C)sc2n1 | 11.6
Cc1csc(NC(=O)C2CCC(C)(C(=O)O)C2(C)C)n1 (stereo not shown) | 12.7
Cn1nc(C(F)(F)F)c(/C=N/OC(=O)c2ccccc2)c1SCc1ccc(Cl)cc1 | 8.02
Cc1ccc2c(cnn2C(=O)CCCC(=O)NCc2ccc(F)cc2)c1 | 13.2
O=C(c1snnc1-c1ccccc1)N1CCOCC1 | 9.48
N/C(CS(=O)(=O)c1ccc(F)cc1)=N\O | 15.7
O=C(NC1CCCCCC1)C(=S)N1CCOCC1 | 8.01
Cc1ccc2c(C)nc(Nc3nc(CSc4nnc(C)s4)cc(=O)[nH]3)nc2c1 | 9.91
CCOC(=O)Cc1csc(N)n1 | 7.66
Cc1ccc(-c2nn(-c3cccc(F)c3)cc2CNCc2cccnc2)o1 | 3.36
O=C(NCCOc1ccccc1)c1ccccc1[N+](=O)[O-] | 17.7
O=C(CCCN1C(=O)c2ccccc2C1=O)NCCCN1CCOCC1 | 20.3

SMILES | hERG current change (%, negative = inhibition) at 1uM [%]
c1ccc2c(c1)nc(Nc1ccc3c(c1)OCO3)c1nnnn12 | 9.03
CC(Oc1ccc(Cl)cc1Cl)C(=O)Nc1cccc(O)c1 (stereo not shown) | 12.9
COc1ccc(NC(=O)C2C3CCC(O3)C2C(=O)O)cc1OC (stereo not shown) | 15.4
Cc1ccc(-c2c(C#N)c(N)nc3c2CCCCC3)o1 | -4.85
COc1ccc2c(c1OC)C(=O)OC2Nc1nc(-c2ccccc2)cs1 (stereo not shown) | 11
O=C1CCCc2c1cnc1ncnn21 | 1.13
O=C(NCCc1ccc(Cl)cc1)C1CCN(S(=O)(=O)N2CCC3(CC2)OCCO3)CC1 | 10.5
Cc1ccc(S(=O)(=O)/N=C(\N)c2ccc(Cl)cc2)cc1 | 10.4
CCn1c(SCc2nc(CC(=O)Nc3ccccc3OC)no2)nnc1-c1cccs1 | -19.1
Cc1ccc(N2CC(C(=O)Nc3ccc4c(c3)OCCO4)CC2=O)cc1 (stereo not shown) | 17.2
CCCN1C(=O)C2(SC(NC(C)=O)=NN2C(C)=O)c2cc(C)cc(C)c21 (stereo not shown) | 5.2
O=C(COC(=O)CN1C(=O)C2CCCCC2C1=O)Nc1ccc(S(=O)(=O)N2CCOCC2)cc1 (stereo not shown) | 20.6
COc1ccc2cc(OC)c(C(=O)N3CCOCC3)cc2c1 | 2.67
CCCc1cc(=O)[nH]c(SCC(=O)Nc2sc3c(c2C#N)CCC(C)C3)n1 (stereo not shown) | 14
O=C(/C=C/c1ccccc1Cl)N(Cc1ccc(Cl)cc1)C1CCS(=O)(=O)C1 (stereo not shown) | 15.7
COc1ccc(CC(=O)NNC(=O)CCc2ccccc2)cc1OC | 7.72
CCC(NS(=O)(=O)c1ccc(OC)cc1)C(=O)NCCc1ccccc1 (stereo not shown) | 12.7
N#CC1=C(SCC(=O)NC2CC2)NC(=O)C(C#N)C12CCCCC2 (stereo not shown) | 9.32
O=C(CC12CC3CC(CC(C3)C1)C2)Nc1ccccc1N1CCOCC1 | 2.7
Nc1cccc(NC(=O)CN2CCOCC2)c1 | 11.7
CCOc1ccc(C(C(=O)NCC2CCCO2)N(C(=O)c2snc(C(N)=O)c2N)c2ccccc2F)cc1 (stereo not shown) | 9.53
CCc1nnc(NC(=O)CSc2nc3[nH]c(=O)cc(O)c3s2)s1 | 0.141

SMILES | hERG current change (%, negative = inhibition) at 1uM [%]
CC1CCC(NC(=O)c2nn(C)c3c2CSc2ccccc2-3)CC1 (stereo not shown) | 5.03
COc1ccccc1OCCC(=O)OCC(=O)Nc1cc(S(=O)(=O)N(C)C)ccc1Cl | 16.6
COC(=O)C1=CN(Cc2ccc(OC)c(OC)c2)C=C(C(=O)OC)C1c1cccc(OC)c1OC | 9.15
COc1ccccc1OCCNC(=O)C1CCN(C(C)=O)CC1 | 18.2
O=C(CSc1ccccn1)Nc1ccc(Cl)cn1 | 5.17
COc1ccc(Cc2noc(CN(C)CC3CCN(Cc4ccccc4)CC3)n2)cc1OC | 6.67
Cc1ccc(S(=O)(=O)CCC(=O)OCC(=O)Nc2cc(C)on2)cc1 | 14.6
CCCCN1CC[C@H]2C=CC[C@@H](C(=O)NCc3ccc(OC)cc3)[C@H]2C1=O | 16
CCCn1c(SCC(=O)Nc2cc(S(=O)(=O)N(C)C)ccc2OC)n[nH]c1=O | 9.45
CC(C)CN(C(=O)CSc1nnc2ccccn12)C1CCS(=O)(=O)C1 (stereo not shown) | 8.69
Cc1cc(=O)[nH]c(S/C=C/c2ccccc2)n1 | 3.74
CN1CC(=O)N(CC(=O)Nc2ccc3c(c2)CCC3)C1=O | 6.54
CCN(CC(=O)NCc1cccs1)C(=O)CCOc1ccccc1C | -10.2
C=C(C)c1cccc(C(C)(C)NC(=O)NCc2cccnc2)c1 | 5.18
CCOC(=O)c1[nH]c(C)c(CN(CCc2ccccc2)C(=O)CCC(=O)O)c1C | 12.1
Cc1cc(/C=C(\C#N)C(=O)NC2CC2)c(C)[nH]1 | 7.2
CC(=O)n1cc([C@H]2C=C(C(=O)Nc3ccccc3)O[C@@H](OCc3ccc(CO)cc3)C2)c2ccccc21 | 7.58
CC1(C)CC(NCc2ccc3c(c2)OCO3)CCO1 (stereo not shown) | 4.4
CC(=O)OC(COc1ccc(F)cc1)Cn1cnc2ccccc21 (stereo not shown) | 25.9
COc1ccc(/C=C/C(=O)Oc2ccc(/C=N\NC(=O)c3ccc(F)cc3)cc2)cc1 | 10.5
COC(=O)C1=C(c2ccc(F)cc2OCc2ccccc2)C[C@@H]2CC[C@H]1N2C(=O)NCc1ccccc1Br | 6.72
Cn1c(=O)cc(OCC(=O)N2CCN(c3ccccc3F)CC2)c2ccccc21 | -9.24
